For 153 variants, enrichment ratio results are on record in a collection of fitness landscapes (doi:10.1126/science.1257360).

Some of the results follow.

To fix the notation:
B1: PhoQ; a variant is named by its letters at X, in order, P23837 (parent)
chain: MKKLLRLFFPLSLRVRFLLATAAVVLVLSLAYGMVALIGYSVSFDKTTFRLLRGESNLFYTLAKWENNKLHVELPENIDKQSPTMTLIYDENGQLLWAQRDVPWLMKMIQPDWLKSNGFHEIEADVNDTSLLLSGDHSIQQQLQEVREDDDDAEMTHSVAVNVYPATSRMPKLTIVVVDTIPVELKSSYMVWSWFIYVLSANLLLVIPLLWVAAWWSLRPIEALAKEVRELEEHNRELLNPATTRELTSLVRNLNRLLKSERERYDKYRTTLTDLTHSLKTPLXXLQXXLRSLRSEKMSVSDAEPVMLEQISRISQQIGYYLHRASMRGGTLLSRELHPVAPLLDNLTSALNKVYQRKGVNISLDISPEISFVGEQNDFVEVMGNVLDNACKYCLEFVEISARQTDEHLYIVVEDDGPGIPLSKREVIFDRGQRVDTLRPGQGVGLAVAREITEQYEGKIVAGESMLGGARMEVIFGRQHSAPKDE

Variants of B1 are the subject of this experiment. The experiment can be described thus: enrichment ratio after two sorts for PhoP signalling (ratio (wild type AVST 3.29)); higher = more functional. The following applies: with PhoP (E. coli).
For the variant DACD, the enrichment ratio was at most 0.25.

As to VYIW, the enrichment ratio is at most 0.25.

For the variant KPHC, the enrichment ratio is at most 0.25.

HSVC: the enrichment ratio is at most 0.25.

For KACP, the enrichment ratio is at most 0.25.

In the case of FEQL, the enrichment ratio is at most 0.25.

Consider YQDR, for which the enrichment ratio was at most 0.25.

ENAS: the enrichment ratio is at most 0.25.

With EGRG, the enrichment ratio was at most 0.25.

On to PEEV, for which the enrichment ratio was at most 0.25.

IHWE: the enrichment ratio is at most 0.25.

Consider SPYF, for which the enrichment ratio is at most 0.25.

As for PKWK, the enrichment ratio is at most 0.25.

QRWI: the enrichment ratio was at most 0.25.

WYYT: the enrichment ratio was at most 0.25.

As to LHWD, the enrichment ratio was at most 0.25.

YTNF: the enrichment ratio was at most 0.25.

KCLQ: the enrichment ratio was at most 0.25.

In the case of HGDQ, the enrichment ratio is at most 0.25.

Regarding TICM, the enrichment ratio was 0.46.

Regarding SSFQ, the enrichment ratio was determined as 3.15.

As to PLEY, the enrichment ratio is at most 0.25.

As for QMNY, the enrichment ratio is at most 0.25.

Take TRMG: the enrichment ratio was at most 0.25.

Regarding SVRR, the enrichment ratio is at most 0.25.

Turning to GAFD, the enrichment ratio is at most 0.25.

For PVCH, the enrichment ratio was at most 0.25.

For the variant VNTC, the enrichment ratio was at most 0.25.

For VIDK, the enrichment ratio is at most 0.25.

Consider MPPQ, for which the enrichment ratio was at most 0.25.

As to QVFK, the enrichment ratio is at most 0.25.

QSPW: the enrichment ratio was at most 0.25.

Turning to PFPF, the enrichment ratio is at most 0.25.

AVHR: the enrichment ratio was at most 0.25.

As for PILG, the enrichment ratio was at most 0.25.

Take MQLI: the enrichment ratio stood at 9.47.

On to ENHF, for which the enrichment ratio was at most 0.25.

Take IRHD: the enrichment ratio was at most 0.25.

With KNCV, the enrichment ratio was at most 0.25.

IYIY: the enrichment ratio was at most 0.25.

Regarding MHSK, the enrichment ratio is at most 0.25.

For HYFM, the enrichment ratio was at most 0.25.

As for FIAK, the enrichment ratio was at most 0.25.

As to ESYY, the enrichment ratio was at most 0.25.

For FGND, the enrichment ratio is at most 0.25.

Consider PFME, for which the enrichment ratio was at most 0.25.

Consider GSYK, for which the enrichment ratio is at most 0.25.

Regarding YIKP, the enrichment ratio was at most 0.25.

On to GWAA, for which the enrichment ratio is at most 0.25.

Turning to RPCM, the enrichment ratio is at most 0.25.

For the variant QFTN, the enrichment ratio is at most 0.25.

DLKH: the enrichment ratio was at most 0.25.

As to KRLN, the enrichment ratio was at most 0.25.

As to KRVI, the enrichment ratio was at most 0.25.

For ATMN, the enrichment ratio was at most 0.25.

As to LCKC, the enrichment ratio was at most 0.25.

With QLGC, the enrichment ratio was at most 0.25.

Consider MDPH, for which the enrichment ratio was at most 0.25.

With ERAN, the enrichment ratio was at most 0.25.

As for HWHV, the enrichment ratio is at most 0.25.

In the case of KGIK, the enrichment ratio is at most 0.25.

Regarding GYCS, the enrichment ratio was at most 0.25.

Turning to PHNC, the enrichment ratio was at most 0.25.

With VNDS, the enrichment ratio is at most 0.25.

As for TWMH, the enrichment ratio was at most 0.25.

As to REGY, the enrichment ratio is at most 0.25.

In the case of LPLR, the enrichment ratio is at most 0.25.

For the variant ISCH, the enrichment ratio is at most 0.25.

Regarding YLIQ, the enrichment ratio is at most 0.25.

DIQI: the enrichment ratio is at most 0.25.

As to TQIE, the enrichment ratio is at most 0.25.

Take FHVR: the enrichment ratio is at most 0.25.

As for MDVL, the enrichment ratio was at most 0.25.

FRQN: the enrichment ratio was at most 0.25.

Turning to DVSV, the enrichment ratio was at most 0.25.

Turning to PREF, the enrichment ratio is at most 0.25.

In the case of MHEI, the enrichment ratio is at most 0.25.

For WDML, the enrichment ratio is at most 0.25.

For the variant TWMG, the enrichment ratio is at most 0.25.

On to IVVA, for which the enrichment ratio was at most 0.25.

Regarding HERN, the enrichment ratio is at most 0.25.

As to RKPK, the enrichment ratio was at most 0.25.

As for PNPV, the enrichment ratio is at most 0.25.

For the variant VSIR, the enrichment ratio was at most 0.25.

QYIK: the enrichment ratio is at most 0.25.

For the variant DMVN, the enrichment ratio was at most 0.25.

As to SVEM, the enrichment ratio is at most 0.25.

As for DWIK, the enrichment ratio is at most 0.25.

With LLSA, the enrichment ratio is at most 0.25.

Consider GKSF, for which the enrichment ratio is at most 0.25.

Take ENGT: the enrichment ratio is at most 0.25.

As for HWWW, the enrichment ratio is at most 0.25.

Take YHTD: the enrichment ratio is at most 0.25.

For QLYS, the enrichment ratio was at most 0.25.

As for TSAG, the enrichment ratio stood at 6.45.

With TFYW, the enrichment ratio is at most 0.25.

Regarding YMHN, the enrichment ratio is at most 0.25.

On to LPCE, for which the enrichment ratio is at most 0.25.

As to LVII, the enrichment ratio was at most 0.25.

Regarding FQAP, the enrichment ratio is at most 0.25.

SFDP: the enrichment ratio was at most 0.25.

For MHVK, the enrichment ratio is at most 0.25.

On to LRHI, for which the enrichment ratio is at most 0.25.

As for NCRW, the enrichment ratio is at most 0.25.

Take MCFY: the enrichment ratio stood at 2.87.

With TFAS, the enrichment ratio amounted to 2.34.

Turning to VDRC, the enrichment ratio is at most 0.25.

On to MPKN, for which the enrichment ratio was at most 0.25.

For NAAI, the enrichment ratio was at most 0.25.

With RGAP, the enrichment ratio was at most 0.25.

For the variant TNGC, the enrichment ratio was determined as 2.27.

With GIMW, the enrichment ratio is at most 0.25.

Turning to ACRA, the enrichment ratio was at most 0.25.

For RESM, the enrichment ratio was at most 0.25.

Consider GSAS, for which the enrichment ratio was at most 0.25.

Regarding NNEI, the enrichment ratio was at most 0.25.

On to FCEG, for which the enrichment ratio was at most 0.25.

For ATNH, the enrichment ratio is at most 0.25.

As for QNSN, the enrichment ratio is at most 0.25.

Take AYLC: the enrichment ratio came out at 0.263.

Turning to YDED, the enrichment ratio is at most 0.25.

Consider QKYY, for which the enrichment ratio is at most 0.25.

For the variant AFWP, the enrichment ratio was at most 0.25.

Turning to AMFD, the enrichment ratio was at most 0.25.

On to DAEC, for which the enrichment ratio is at most 0.25.

As to NHSW, the enrichment ratio is at most 0.25.

Consider FMTF, for which the enrichment ratio was at most 0.25.

In the case of RAQG, the enrichment ratio amounted to 1.15.

Consider ETFI, for which the enrichment ratio is at most 0.25.

For KNPP, the enrichment ratio was at most 0.25.

On to GPNS, for which the enrichment ratio was at most 0.25.

As to YHPV, the enrichment ratio was at most 0.25.

As to FRPS, the enrichment ratio is at most 0.25.

As for VATR, the enrichment ratio is at most 0.25.

As for WMFN, the enrichment ratio is at most 0.25.

Turning to KMHD, the enrichment ratio was at most 0.25.

Consider KRAS, for which the enrichment ratio was at most 0.25.

As to SKQW, the enrichment ratio was at most 0.25.

Regarding YQSK, the enrichment ratio is at most 0.25.

Consider TFCR, for which the enrichment ratio was at most 0.25.

In the case of IFSC, the enrichment ratio is at most 0.25.

Turning to AEWT, the enrichment ratio turned out to be 22.1.

Consider SLWY, for which the enrichment ratio is at most 0.25.

Consider FPSH, for which the enrichment ratio was at most 0.25.

As for DGFV, the enrichment ratio was at most 0.25.

For PPQC, the enrichment ratio is at most 0.25.

LEAD: the enrichment ratio was at most 0.25.

As for FGFA, the enrichment ratio is at most 0.25.

For the variant NENH, the enrichment ratio is at most 0.25.

Take KYKP: the enrichment ratio is at most 0.25.

As to VNSH, the enrichment ratio was at most 0.25.

Turning to PWYV, the enrichment ratio is at most 0.25.

In the case of YADV, the enrichment ratio was at most 0.25.
